# Experimental data from the supplement of paper PMC3334620.
# The full ranking holds about 33,000 sequences; the median of “E-score (-0.5 to 0.5)” is about -0.056, and the highest 2% start at about 0.38. This is one part of the list.
# Target: Stb4 (UniProt P50104)
# Test: PBM E-score (8-mer binding enrichment) (E-score (-0.5 to 0.5)); higher = stronger / more preferred TF binding; most listed sequences are background and not binding sites
# Details: protein concentration: 200 nM; construct: GST-DNA-binding domain
# How it was run: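 For each ungapped eight-base word taken together with its reverse complement, the Universal PBM Analysis Suite assigned an E-score. Binding data came from GST-tagged yeast transcription factors, applied at about 100-200 nM, on universal all-10-mer Agilent arrays made double-stranded by primer extension. Fluorescent anti-GST marked bound protein, and scans were normalised with masliner.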
row,Sequence,PBM E-score
1,AATTTTTA,0.0424
2,AACACCCG,0.4
3,AATTAGGA,-0.00464
4,ACAGAGGC,-0.126
5,ATAAGTAC,-0.0437
6,CCAAGGCG,-0.124
7,ATTAAGGG,-0.207
8,GACACCGC,-0.0266
9,CGTTTTTC,0.0065
10,CCGCAGAC,0.0637
11,CCTACGCG,-0.00082
12,AGTGCTCG,0.0663
13,GCTAGGAA,-0.0752
14,CCAACAGA,-0.177
15,CACCTACC,-0.0395
16,CAGAAAAA,-0.128
17,CATTCTAG,-0.421
18,GGGCTAAA,0.0708
19,ATCTCGAG,-0.0973
20,AGCGGGGA,0.0136
21,CGGGTTTA,0.389
22,ACACCGCT,-0.0884
23,ACACGTAC,-0.0351
24,CAACGGTC,-0.117
25,AGAGGCGA,-0.258

row,Sequence,PBM E-score
1,AGAGGCAA,-0.108
2,ACCTTCTA,-0.272
3,GCCCCATA,-0.115
4,GGAGGCCA,0.0531
5,GAGCAATC,0.0177
6,AGGTAATG,-0.0367
7,GCTTGGAA,-0.166
8,AATTTAAA,0.0232
9,CTCGTGAC,-0.223
10,ACGACCAA,-0.163
11,ACACTTCG,0.0288
12,CACAGAGG,-0.326
13,GGACCTAC,-0.0318
14,CCTGGCCG,-0.0778
15,AAATTTCT,0.00042
16,CCTATGCA,-0.102
17,ACAATTTC,-0.0822
18,CATTCGGA,0.383
19,CCATCCAA,-0.143
20,CGGGGTAA,0.181
21,ATCTGCCG,0.362
22,GACCACGC,-0.0599
23,CCACACGC,0.0565
24,TCTCGCCA,-0.167
25,CGTTGTTC,0.0428

row,Sequence,PBM E-score
1,CAAGTAAA,0.0875
2,CGTGCTAC,-0.0417
3,ACCTGGTC,0.0494
4,CTGGTAGA,-0.0837
5,AGCTTCCA,0.0259
6,CTTAGAGC,-0.059
7,ACAGAGGT,-0.307
8,GGGTGGTA,0.109
9,CGTTGAAC,-0.0659
10,AGCGATAA,-0.0303
11,CGTAACAC,-0.0366
12,ACAGGCCT,-0.146
13,CTCTGTAA,-0.141
14,GCTTCCGA,0.473
15,ATATGGTG,0.0316
16,CCAACTTC,-0.0561
17,GACCAGTA,0.0643
18,GTGAATTA,-0.0848
19,ACCCCCAG,-0.0515
20,CATTAAGA,-0.226
21,TATGCAGA,-0.133
22,GGGCTCTA,0.0116
23,AGCAGCCC,-0.117
24,ACATAAAG,-0.0881
25,CCCATCGA,-0.135

row,Sequence,PBM E-score
1,CGATACCG,0.178
2,AAGTAGGA,-0.284
3,ACAGGTTC,-0.0259
4,ACTTGCTA,-0.196
5,GTAAGTGA,0.0633
6,CGATATGA,0.183
7,AGGACGTA,-0.0905
8,GGTCGGAA,0.439
9,AAAACAGG,-0.238
10,CAGTCAAC,-0.128
11,ATGCACAG,-0.104
12,AATGTCAA,-0.0622
13,AGACAACC,0.19
14,CAGTTTTC,0.0444
15,AGCCTGAG,-0.231
16,GCTGAAAC,0.0652
17,CATACTCC,0.209
18,AGTTGCTG,-0.0319
19,CGCATAAG,0.0113
20,AAGATACG,0.0517
21,AATGCTGG,-0.0329
22,AGACTCGC,-0.155
23,ACGGGGCA,-0.13
24,ATTCTGGG,-0.0757
25,CCCGCGGA,0.289

row,Sequence,PBM E-score
1,AAACCAAG,-0.193
2,GACAGCTA,-0.254
3,ATGAGTCG,-0.13
4,AATTGCTA,-0.167
5,CTCCTCCC,0.0972
6,ACCCCCGT,-0.0992
7,CCTTACGC,-0.135
8,AATTACTA,-0.0528
9,CATATTAC,0.129
10,CCTATGTA,-0.241
11,GTATAGAC,-0.101
12,AGCAGGTA,0.0335
13,ACCAAGGC,-0.0734
14,CAAACCGG,0.175
15,CGCAAACG,-0.0485
16,CGGCGCTA,0.113
17,GCAGATGA,-0.138
18,CCTGCAAC,-0.22
19,ATACAGGC,-0.192
20,ATTAAATA,0.152
21,AGATGTAC,-0.311
22,ATTATCAG,-0.0427
23,CGATGAGA,0.0371
24,AGGGTAAC,-0.27
25,CATGTGGA,-0.201

row,Sequence,PBM E-score
1,ATCACACC,0.241
2,GGGCTCAC,-0.195
3,AGACGAAC,-0.287
4,ACCAGGTC,0.0113
5,CTCTACAC,-0.117
6,AGGATATC,0.0132
7,AGTGTCCG,0.185
8,ATAGTCAC,-0.107
9,ATCCGGGA,0.368
10,GCTCTGAA,-0.0645
11,ACGGTAAC,0.136
12,AAGGTCCC,-0.103
13,CTTGATCA,-0.134
14,CAGACCGA,0.204
15,ACGAATCT,-0.00138
16,GCCACAAA,0.00336
17,CGATTCAA,-0.136
18,CTTCACCA,0.00499
19,AGGAAATA,0.0284
20,ACACTCAG,-0.126
21,AATTGTAT,-0.0384
22,CACTTCCC,0.0457
23,ATTTTGGA,-0.0131
24,TGTCAAAA,0.00959
25,ACAGTGTC,-0.155

row,Sequence,PBM E-score
1,CTCTAGGA,-0.171
2,CTGAAATC,-0.0865
3,AAAAAAGG,0.133
4,GAAAATCA,0.106
5,CAGGACAA,-0.0613
6,CCGGCCGC,0.139
7,CCGTACGA,-0.0515
8,AGTCATGC,-0.0165
9,CCCACGTA,-0.241
10,CCACCCCC,-0.0892
11,CTTGTATA,-0.132
12,CAAGAAAG,-0.0821
13,CCAATCAC,-0.0745
14,TCTAACAA,-0.0695
15,TCCCGGCA,0.298
16,AGGAACCA,-0.145
17,AGTACTGC,-0.134
18,ATGTGCTG,-0.0682
19,GTCTGTGA,-0.234
20,AGGAATCA,-0.00647
21,AGCCCTGA,-0.232
22,ACTGAATC,-0.099
